About 220 (0.56%) of roughly 39,000 compounds showed activity. This is one part of the list.
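Further: static incubation at 37 °C against the wild-type strain, values averaged over two biological replicates.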

This test deals with Escherichia coli K-12 BW25113. Description: relative growth (OD600 normalised to plate interquartile mean) (fraction); higher = less growth inhibition, active = 0.2 or less. The note with it: 50 µM; LB; incubation time: overnight (16-24 h).
For the compound `COc1ccc(S(=O)(=O)N(C)C[C@H]2Oc3c(NC(=O)c4cc(C)nn4C)cccc3C(=O)N([C@@H](C)CO)C[C@H]2C)cc1`, the relative growth is inactive: 0.968. On to `CC(C)NC(=O)N1Cc2cc(C(=O)NC3Cc4ccccc4C3)nc(-c3cccc(-c4cccnc4)c3)c2[C@@H]1CCO`, for which the relative growth was inactive: 1.02. With `Cc1noc(C)c1NC(=O)N(C)C[C@@H]1Oc2ccc(NS(=O)(=O)c3cccs3)cc2CC(=O)N([C@H](C)CO)C[C@H]1C`, the relative growth was inactive: 1.02. As to `OCc1cn(Cc2ccccc2)nn1`, the relative growth is inactive: 1.01.

Regarding `C[C@@H]1CN([C@@H](C)CO)C(=O)c2cc(NC(=O)C3CC3)ccc2O[C@@H]1CN(C)C(=O)Nc1ccc2c(c1)OCO2`, the relative growth is inactive: 0.987.

Regarding `C[C@@H]1CCCCO[C@@H](CN(C)S(=O)(=O)c2ccccc2)[C@@H](C)CN([C@H](C)CO)C(=O)c2cc(NS(=O)(=O)c3ccc(Cl)cc3)ccc2O1`, the relative growth was inactive: 1.02. For the compound `O=C(CCCCC(=O)N/N=C/[C@H](O)[C@@H](O)[C@@H](O)[C@H](O)C(=O)O)NO`, the relative growth was inactive: 1.01. Turning to `COc1ccc(NC(=O)Nc2ccc3c(c2)C(=O)N([C@H](C)CO)C[C@H](C)[C@H](CN(C)C(=O)NC2CCCCC2)OCCCC[C@H](C)O3)cc1`, the relative growth is inactive: 1. For the compound `COc1ccc(S(=O)(=O)N(C)C[C@H]2Oc3ccc(NC(=O)CCCN(C)C)cc3CC(=O)N([C@H](C)CO)C[C@@H]2C)cc1`, the relative growth was inactive: 1. For the compound `C[C@H](CO)N1C[C@H](C)[C@@H](CN(C)Cc2ccc(C(=O)O)cc2)Oc2c(NC(=O)c3ccncc3)cccc2C1=O`, the relative growth is inactive: 0.968. As to `C[C@@H]1CN([C@@H](C)CO)C(=O)c2cc(NC(=O)Cc3ccccc3)ccc2O[C@@H]1CN(C)C(=O)Nc1ccc(C(F)(F)F)cc1`, the relative growth is inactive: 0.967. Regarding `C[C@@H]1CCCCO[C@@H](CN(C)S(=O)(=O)c2ccc(F)cc2)[C@@H](C)CN([C@H](C)CO)C(=O)c2cc(NC(=O)CCC(F)(F)F)ccc2O1`, the relative growth is inactive: 0.966. As for `CNC[C@@H]1Oc2ccc(NS(=O)(=O)c3cn(C)cn3)cc2C(=O)N([C@H](C)CO)C[C@H]1C`, the figure is inactive: 1; as for `COCCCNC(=O)[C@@]1(Sc2ccc(C)cc2)CC(=O)N(Cc2ccccc2Cl)[C@@H]1c1ccc(CO)cc1`, inactive: 1.01; as for `C[C@H]1CN([C@@H](C)CO)C(=O)Cc2cc(NC(=O)CCN3CCOCC3)ccc2O[C@@H]1CN(C)S(=O)(=O)c1ccc(F)cc1`, inactive: 0.937. For the compound `O=C(C[C@H]1CC[C@@H]2[C@H](COC[C@H](O)CN2S(=O)(=O)c2ccc(Oc3ccccc3)cc2)O1)NCCN1CCCCC1`, the relative growth is inactive: 1.03.

For the compound `COc1ccc(S(=O)(=O)Nc2ccc3c(c2)C(=O)N([C@@H](C)CO)C[C@H](C)[C@H](CN(C)C(=O)c2ccccc2)OCCCC[C@@H](C)O3)cc1`, the relative growth is inactive: 1.03. For the compound `C[C@@H]1CN([C@@H](C)CO)C(=O)c2cc(NC(=O)CCC(F)(F)F)ccc2O[C@@H](C)CCCCO[C@H]1CN(C)S(=O)(=O)c1ccccc1`, the relative growth was inactive: 1.02. For `C[C@@H]1CN([C@H](C)CO)S(=O)(=O)c2ccc(Br)cc2O[C@@H]1CN(C)C(=O)c1cnccn1`, the relative growth is inactive: 1. Consider `Cc1noc(C)c1NC(=O)Nc1cccc2c1O[C@@H](CN(C)S(=O)(=O)c1cn(C)cn1)[C@@H](C)CN([C@@H](C)CO)C2=O`, for which the relative growth was inactive: 1. In the case of `C[C@@H]1CN([C@H](C)CO)C(=O)Cc2cc(NC(=O)Cc3ccccc3)ccc2O[C@H]1CN(C)S(C)(=O)=O`, the relative growth was inactive: 1.01. As for `C[C@@H]1CN([C@@H](C)CO)C(=O)c2cccc(NC(=O)c3nc4ccccc4s3)c2O[C@H]1CN(C)C(=O)Nc1ccc(C(F)(F)F)cc1`, the figure is inactive: 0.948. `COc1ccc(S(=O)(=O)Nc2ccc3c(c2)C(=O)N([C@@H](C)CO)C[C@@H](C)[C@@H](CN(C)C(=O)Nc2cccc4ccccc24)OCCCC[C@@H](C)O3)cc1`: the relative growth was inactive: 1.05. With `C[C@@H]1CN([C@@H](C)CO)C(=O)c2cc(NC(=O)Cn3cnnn3)ccc2O[C@@H]1CN(C)C(=O)Nc1ccccc1`, the relative growth is inactive: 0.99. In the case of `C[C@@H]1CN([C@H](C)CO)C(=O)c2cc(C#CC3CC3)cnc2O[C@@H]1CN(C)S(=O)(=O)c1cccc(F)c1`, the relative growth was inactive: 1.02. In the case of `Cc1ccc(S(=O)(=O)N(C)C[C@H]2Oc3ccc(NS(=O)(=O)c4cn(C)cn4)cc3CC(=O)N([C@@H](C)CO)C[C@H]2C)cc1`, the relative growth was inactive: 1.03. As to `CC(C)C(=O)Oc1ccc(CO)cc1C(CCN(C(C)C)C(C)C)c1ccccc1.O=C(O)C=CC(=O)O` (stereo unspecified), the relative growth was inactive: 0.804.

For `Cc1ccc(S(=O)(=O)Nc2ccc3c(c2)C(=O)N([C@H](C)CO)C[C@H](C)[C@@H](CN(C)C(=O)Nc2cccc4ccccc24)O3)cc1`, the relative growth was inactive: 1.02. Take `C[C@H]1CN([C@@H](C)CO)C(=O)Cc2cc(NC(=O)Cc3ccccc3)ccc2O[C@@H]1CN(C)S(=O)(=O)c1cn(C)cn1`: the relative growth was inactive: 0.936.

With `COc1ccc(S(=O)(=O)N2C[C@@H](O)COC[C@@H]3O[C@H](CC(=O)N[C@H]4CCN(Cc5ccccc5)C4)CC[C@H]32)cc1`, the relative growth was inactive: 0.956. Take `C[C@H]1CCCCO[C@@H](CN(C)C(=O)Nc2ccc(F)cc2)[C@@H](C)CN([C@@H](C)CO)C(=O)c2cc(NC(=O)Nc3ccccc3)ccc2O1`: the relative growth was inactive: 1.01. For the compound `C[C@@H]1CN([C@@H](C)CO)C(=O)Cc2cc(NC(=O)C3CCCCC3)ccc2O[C@H]1CN(C)Cc1ccc(C(=O)Nc2ccccc2N)cc1`, the relative growth was inactive: 1.01. For `COc1ccc(S(=O)(=O)N2CC(NC(=O)Cn3ccc(=O)n(C)c3=O)C2)cc1`, the relative growth is inactive: 0.997. With `O=C1OCCN(c2ccccc2)C1=O`, the relative growth was inactive: 1. In the case of `COc1ccc([Si](C)(C)[C@H]2[C@H](CC(=O)N3Cc4ccccc4C[C@H]3CO)O[C@@]3(C(=O)N(Cc4cccc(N5CCC5=O)c4)c4ccccc43)[C@@H]2C)cc1`, the relative growth is inactive: 1.03. With `O=C(C[C@@H]1CC[C@@H](NC(=O)CN2CCOCC2)[C@H](CO)O1)NC1CCC1`, the relative growth was inactive: 0.996. For `C[C@H](O)C#Cc1ccc2c(c1)O[C@@H](CN(C)C(=O)c1ccncc1)[C@H](C)CN([C@H](C)CO)S2(=O)=O`, the relative growth was inactive: 0.982. For the compound `CNC(=O)CN1CCN2CCN(CC(=O)NC)CC(=O)[O][Gd]([O]C(=O)C2)[O]C(=O)C1`, the relative growth was inactive: 0.956. Consider `C[C@H](CO)N1C[C@H](C)[C@H](CN(C)C(=O)Nc2ccccc2)Oc2c(NC(=O)CCCCCC(=O)Nc3ccccc3N)cccc2C1=O`, for which the relative growth was inactive: 0.992. On to `COc1ccc2c(c1)c(CC(=O)OCC(=O)O)c(C)n2C(=O)c1ccc(Cl)cc1`, for which the relative growth is inactive: 0.954. With `COC(=O)c1c2oc(c1C(=O)OC)C(=O)N(C)Cc1cn(nn1)C[C@@H](Cc1ccccc1)NC(=O)N[C@H](COC(=O)NCCCCCC(=O)NO)CC2`, the relative growth is inactive: 1.01.

Consider `O=C(C[C@H]1C[C@@H]2c3cc(NS(=O)(=O)c4ccc(F)cc4)ccc3O[C@@H]2[C@@H](CO)O1)NCc1ccccc1F`, for which the relative growth was inactive: 0.99. Take `CN(C)c1cncc(C(=O)O)c1`: the relative growth was inactive: 0.97.

Take `C[C@H]1CN([C@@H](C)CO)C(=O)c2cccc(NC(=O)c3nc4ccccc4s3)c2O[C@H]1CN(C)Cc1ccc(-c2ccccc2)cc1`: the relative growth is inactive: 0.996. As for `Cl.NC(COP(=O)(O)O)C(=O)O` (stereo unspecified), the figure is inactive: 1.08; as for `CC1C(=O)OC2CC34C5CC(C(C)(C)C)C36C(OC(=O)C6O)OC4(C(=O)O5)C21O` (stereo unspecified), inactive: 1.09; as for `C[C@@H]1CN([C@H](C)CO)C(=O)c2cccc(NS(C)(=O)=O)c2O[C@H]1CN(C)C(=O)Nc1ccc(F)cc1`, inactive: 1.01.

For the compound `C[C@H]1CN([C@@H](C)CO)C(=O)c2cccc(NC(=O)Nc3ccccc3)c2O[C@H]1CN(C)Cc1ccc(Cl)c(Cl)c1`, the relative growth was inactive: 0.994. Regarding `Cc1nc2[nH]c(C)c(CCC(=O)O)c(=O)n2n1`, the relative growth was inactive: 0.998. As for `C[C@H]1CN([C@@H](C)CO)C(=O)c2cc(NC(=O)Cc3cn(C)c4ccccc34)ccc2O[C@H]1CN(C)Cc1ccc(-c2ccccc2)cc1`, the relative growth is inactive: 1.02. Regarding `COc1ccc(-n2c(C)cc(CN)c2C)cc1`, the relative growth is inactive: 0.995.

In the case of `O=C(C[C@H]1C=C[C@@H](NC(=O)Nc2cc(F)ccc2F)[C@H](CO)O1)NCCCN1CCOCC1`, the relative growth is inactive: 0.931. As for `CO[C@@H](CN(C)C(=O)C1CCOCC1)[C@@H](C)CN(C(=O)Nc1ccc(C(F)(F)F)cc1)[C@@H](C)CO`, the figure is inactive: 0.889; as for `CN(C)CCCNC(=O)C[C@@H]1CC[C@H]2[C@@H](COc3ccc(NS(C)(=O)=O)cc3C(=O)N2C)O1`, inactive: 0.977; as for `COc1cccc(S(=O)(=O)Nc2ccc3c(c2)[C@H]2C[C@H](CC(=O)NCCc4ccccc4)O[C@@H](CO)[C@H]2O3)c1`, inactive: 1.02. Turning to `C[C@H](CO)N1C[C@H](C)[C@H](CN(C)C(=O)Cc2ccccn2)Oc2cc(C#C[C@@H](C)O)ccc2S1(=O)=O`, the relative growth is inactive: 1.

For the compound `CO[C@@H]1CN(C)C(=O)c2ccc(NC(=O)NC(C)C)cc2OC[C@@H](C)N(Cc2ccc(-c3ccccn3)cc2)C[C@@H]1C`, the relative growth was inactive: 1.01.

Turning to `C[C@H](CO)N1C[C@H](C)[C@H](CN(C)CC2CC2)Oc2ccc(NC(=O)Cn3cnnn3)cc2C1=O`, the relative growth is inactive: 1.01. Regarding `C[C@H](NC(=O)C[C@@H]1C[C@H]2c3cc(NC(=O)Nc4ccc(C(F)(F)F)cc4)ccc3O[C@H]2[C@@H](CO)O1)c1ccccc1`, the relative growth is inactive: 1.01. Consider `O=C1CN(S(=O)(=O)Cc2ccccc2)C[C@H]2[C@H](c3ccc(C#Cc4ccc(F)cc4)cc3)[C@H](CO)N12`, for which the relative growth is inactive: 1.01. As for `Cc1noc(C)c1NC(=O)Nc1ccc2c(c1)CC(=O)N([C@H](C)CO)C[C@H](C)[C@H](CN(C)Cc1ccc(C(=O)Nc3ccccc3N)cc1)O2`, the figure is inactive: 1.01.
